The campaign covered roughly 410,000 compounds. About 7,200 (1.8%) were called active. Inconclusive means that the source gave no clear call. Such entries were picked first, then a sample of the others. The call rests on the fitted dose curve; in most records, active means well fitted activation curve with a large enough effect; inconclusive means small, poorly fitted or top-dose-only effect, or another doubt; inactive means no such curve, though single readings can be large or run the other way. Potencies of inconclusive entries are doubtful fits and often do not repeat.
Assay: qHTS of TDP-43 Inhibitors; further: nearly all actives have a fitted effect of over 50% in size; on growth rescue (activation): % of control where 0% means no effect
Details: TDP-43 expressing yeast growth rescue, BacTiter-Glo, 24 h; growth rescue (activation): at 46.1 µM (top of the series) unless noted
Method in brief: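 Cell-based yeast growth screen: TDP-43 expression induced in galactose, inoculum OD600=0.02 after raffinose pregrowth to mid-log. Read-out BacTiter-Glo luminescence at 24 hr, 30 deg C; inhibition of toxicity seen as signal increase.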
Potency means the concentration at half of the fitted maximal effect; tags describe the fitted curve by direction and shape.

Potency, active:
Cc1ccc(CN2CCN(/N=C\C(Br)=C\c3ccccc3)CC2)cc1 12.6 µM
O=C1c2ccccc2C(=O)N1CCSc1n[nH]c(=S)s1 20 µM
CCc1cccc(NC(=O)c2cccc3c2C(=O)N(CC2CCCO2)C3)c1 (stereo unspecified) 17.8 µM
CSCc1cc(N2CCOCC2)nc(SCc2ccc(Cl)cc2Cl)n1 22.4 µM
Cc1ccccc1NCc1ccc([N+](=O)[O-])s1 11.2 µM
CC1=C(C(=O)OC2CCCCCC2)C(c2c(F)cccc2Cl)CC(=O)N1 (stereo unspecified) 11.2 µM
CCc1ccc(OCC(=O)NNC(=O)c2cnccn2)c(Br)c1 25.1 µM
O=C1c2ccccc2C(c2nnnn2Cc2ccccc2)N1CCOc1ccccc1 (stereo unspecified) 11.2 µM
Cc1ccc2oc(/N=C(\N)NC(=O)C3CC3)nc2c1 20 µM
COc1ccc(-n2c(C)cc(C(=O)CCl)c2C)cc1 3.16 µM
C/C(=N\Nc1ccccc1Cl)c1ccc(-n2ccnc2)cc1 7.08 µM
O=C(NCCc1csc(-c2ccccc2)n1)c1ccc(Br)o1 22.4 µM
O=C(COc1ccc2ccccc2c1Br)N1CCCC1 11.2 µM
Cc1cccc(Nc2nc(N)c([N+](=O)[O-])c(N3CCC(C)CC3)n2)c1 25.1 µM

Potency, inconclusive:
Cc1ccc(CSC2=NCCN2S(=O)(=O)c2ccc(C)cc2)cc1 25.1 µM [activator, single point]
CSc1ccccc1OCc1cc(C(=O)N2CCNC(=O)C2)no1 12.6 µM [activator, partial curve]
Cc1ccc(Nc2ncnc3c2nnn3Cc2ccccc2)cc1 2.24 µM [activator, full curve]
O=P(NCc1ccccc1)(OCc1ccccc1)OCc1ccccc1 0.316 µM [activator, full curve, poor fit]
CC(C)C(=O)N1CCN(c2nc(-c3ccccc3)c3c(c2C#N)CCCC3)CC1 25.1 µM [activator, single point]
CCOC(=O)C1CCCN(c2ncnc3c2cnn3-c2ccc(Cl)cc2)C1 (stereo unspecified) 11.2 µM [activator, single point]
CCN(Cc1ccccc1)C(=O)c1cc(COc2c(F)cccc2F)on1 12.6 µM [activator, partial curve]
Fc1ccc(-n2cc(-c3ccccc3)c3c(NC4CCCCC4)ncnc32)cc1 0.794 µM [activator, full curve]
Cc1ccc(C)c(OCCC(=O)N2CCN(S(=O)(=O)c3cc(C)ccc3C)CC2)c1 22.4 µM [activator, single point]
CCC(CC)c1nnc(NC(=O)CCc2ccc(OC)cc2)s1 14.1 µM [activator, partial curve]
CCC(C)N(CCNC(=O)CC1Oc2ccccc2NC1=O)C1CCCCC1 (stereo unspecified) 3.16 µM [activator, partial curve]
COc1cccc(/C=N/Nc2c(Cl)cncc2Cl)c1O 10 µM [activator, partial curve]
CSc1ccc(CN(C)C(=O)c2cc(=O)c3ccccc3o2)cc1 11.2 µM [activator, single point]
CCOc1ncccc1C(=O)N1CCN(S(=O)(=O)c2ccc3ccccc3c2)CC1 35.5 µM [activator, single point]
COc1cccc(C(=O)Nc2cccc(NC(=O)c3ccccc3Cl)c2)c1 35.5 µM [activator, single point]
COC(=O)c1ccc(OCC(O)CN2C(=O)c3ccccc3C2=O)cc1 (stereo unspecified) 35.5 µM [activator, single point]
CCn1c(=O)c2cc(C(=O)N(C)CC(OC)OC)sc2c2ccccc21 10 µM [activator, partial curve]
COc1cccc(C(O)c2nc(-c3cccc(C(C)C)c3)cs2)c1 (stereo unspecified) 3.98 µM [activator, partial curve]
COc1ccc(N(Cc2cccs2)C(=O)COc2cccc(Cl)c2)cc1 35.5 µM [activator, single point]
O=C(/C=C/c1ccccc1Cl)c1ccc(O)cc1 31.6 µM [activator, single point]
COc1ccc(NC(=S)NN(C)C(=S)Nc2ccc(OC)cc2)cc1 35.5 µM [activator, single point]
CN(c1ccccc1)c1nc(N2CCCC2)nc(-n2ccnc2)n1 31.6 µM [activator, single point]
O=[N+]([O-])c1ccccc1S(=O)(=O)c1ccccc1[N+](=O)[O-] 3.16 µM [activator, single point]
Cc1cccc(N2CCN(C(=O)NCc3noc4ccccc34)CC2)c1C 31.6 µM [activator, partial curve]
O=c1[nH][nH]c2c1[C@H](c1ccc(Cl)cc1)O[C@H](CCc1ccccc1)C2 35.5 µM [activator, single point]
O=C(/C=C/c1cccs1)NCc1ccc2c(c1)OCO2 10 µM [activator, partial curve]
O=C1NC(Cc2ccc(O)cc2)c2nc3ccc(F)cc3c(=O)n2-c2cc3ccccc3cc21 (stereo unspecified) 11.2 µM [activator, partial curve]
CCN(Cc1ccccc1)C(=O)c1nc(-c2cccc(F)c2)n2c1CCCCC2 15.8 µM [activator, single point]
CC(C)Sc1nc(NCc2ccco2)c2c3c(sc2n1)COC(C)(C)C3 12.6 µM [activator, partial curve]
COc1ccccc1NC(=O)c1cnc(SCC(=O)NCCc2ccccc2)n(C)c1=O 35.5 µM [activator, single point]
CC(C)n1nnnc1C1c2ccccc2C(=O)N1Cc1ccccc1 (stereo unspecified) 10 µM [activator, partial curve, poor fit]
Cc1ccc(C)n1-c1c(C(=O)NCCC(C)C)sc2ncccc12 17.8 µM [activator, single point]
Cc1oc2ncn(CC(C)C)c(=O)c2c1C(=O)N1CCN(c2cccc(C(F)(F)F)c2)CC1 7.94 µM [activator, partial curve]
COc1ccc(/C=C/C(=O)Nc2cc(C(F)(F)F)ccc2Cl)cc1OC 11.2 µM [activator, single point]
CCCCNc1c(-c2cccnc2)nc2nc(C)cc(C)n12 10 µM [activator, partial curve]
CCCC1CCC(c2ccc(C(=O)NN)cc2)CC1 (stereo unspecified) 31.6 µM [activator, single point]
Cc1ccc(CNC(=O)CCCCn2c(=O)c3ccccc3n(Cc3c(C)cc(C)cc3C)c2=O)cc1 2.82 µM [activator, full curve, poor fit]
COc1cccc(NC(=O)CSC2=Nc3ccccc3C3=NC(CC(=O)NCCc4ccccc4)C(=O)N23)c1 (stereo unspecified) 6.31 µM [activator, single point]
CCn1c(Cn2nnc(-c3ccccc3)n2)nnc1SCC(=O)N1CCOCC1 5.62 µM [activator, partial curve]
O=S1(=O)CCOC[C@H](CC2CCCCC2)N1Cc1ccccc1F 12.6 µM [activator, partial curve]
CCCCOc1cccc(/C=C(\C#N)C(=O)NC2CC2)c1 15.8 µM [activator, single point]
CC1CC(=O)Nc2ccccc2N1C(=O)COc1ccc2cc(Br)ccc2c1 (stereo unspecified) 0.562 µM [activator, full curve, poor fit]

Potency, inactive:
Cc1ccn2c(Nc3ccccc3C)c(-c3ccccn3)nc2c1

Growth rescue (activation), inconclusive:
Cc1ccccc1/C(N)=N/OC(=O)/C=C/c1ccccc1 -92.5% [activator]

Growth rescue (activation), inactive:
CCOC(=O)c1cccc(NC(=O)COc2nsnc2N2CCOCC2)c1 3.66%
O=C1CN(C(=S)NC(=O)c2ccccc2[N+](=O)[O-])CCN1 -1.33%
COc1ccccc1-c1noc(-c2ccc(N3CCC(C)CC3)c([N+](=O)[O-])c2)n1 -2.71%
COc1cccc(Nc2ccccc2C(=O)O)c1 11.1%
COc1ccc(NC(=O)c2cc3c(s2)-c2c(C)cccc2OC3)c(OC)c1 11.8%
COc1ccc(N2CCN(S(=O)(=O)c3ccc4c(c3)CC(C)N4C(C)=O)CC2)cc1 (stereo unspecified) -9.31%
Fc1ccc(-c2nc(Nc3cccc(Cl)c3)nc3c2COc2ccccc2-3)cc1 2.51%
COc1cccc(-n2c(=O)c3c(C)c(C(=O)N(C)C)sc3n(Cc3ccc(F)cc3Cl)c2=O)c1 3.52%
COCCCNC(=O)C1CCCN(C(=O)c2cnn(-c3ccc(F)cc3)c2-n2cccc2)C1 (stereo unspecified) 0%
CC(C)C(=O)Nc1ccc2c(c1)C(=O)N(CCC(=O)O)C2=O -8.43%
CCOc1ccc(OCCC(=O)OCC(=O)Nc2ccc(N3CCOCC3)cc2)cc1 0%
CCc1ccc(C(=O)c2cn(CC(=O)NCCc3ccc(OC)c(OC)c3)c3nc(C)ccc3c2=O)cc1 12.4%
COc1ccc(OC)c(S(=O)(=O)N2CCC(c3ccncc3)CC2)c1 0% [at 9.22 µM]

Source: PubChem BioAssay AID652104 (National Center for Advancing Translational Sciences (NCATS), 2013)
